These results are taken from the supplement of paper PMC12230231.

± gives the standard deviation of the averaged measurements. Restriction of a single-cycle SIVsab GFP reporter by TRIM5α v1-loop variants in CRFK cells. Human variants: read share among cells still uninfected after two challenges over input, higher = gained restriction. Rhesus variants: share among infected cells over input, higher = lost restriction. Reporter dose not given per row. No active / inactive call per row; the paper calls a change when both replicates lie above its controls (mean + 2 SD of stop or wild-type variants, or the top frameshift score). Residues outside the varied loop are taken from Swiss-Prot. The paper reads the human single-substitution scores as noise; they and the rhesus combinations repeat poorly (rank correlation 0.3 to 0.4), indel scores repeat only for the top variants, rhesus substitutions well (0.9).

The subject of this data set is SIVsab (simian immunodeficiency virus of sabaeus monkeys), single-cycle GFP reporter, in CRFK cells. The data set is described as follows: enrichment among uninfected cells over input (fold); higher = stronger restriction. The note with it: library: human / rhesus combinations. The protocol:
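Pools of CRFK cells expressing variants of the TRIM5α v1 loop were challenged with the single-cycle reporter, sorted by GFP and sequenced; mean of two replicates.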
Take “MASGILVNVKEEVTCPICLELLTQPLSLDCGHSFCQACLTANHKKSMLDKGESSCPVCRISYQPENIRPNRHVANIVEKLREVKLSPEGQKVDHCARHGEKLLLFCQEDGKVICWLCERSQEHRGHHTFLTEEVAREYQVKLQAALEMLRQKQQEAEELEADIREEKASWKTQIQYDKTNVLADFEQLRDILDWEESNELQNLEKEEEDILKSLTNSETEMVQQTQSLRELISDLEHRLQGSVMELLQGVDGVIKRTENVTLKKPETFPKNQRRVFRAPDLKGMLEVFRELTDVRRYWVDVTVAPNNISCAVISEDKRQVSSPKPQIIYQAPGTRYTFPSFVNFNYCTGILGSQSITSGKHYWEVDVSKKTAWILGVCAGFQPDAMCNIEKNENYQPKYGYWVIGLEEGVKCSAFQDSSFHTPSVPFIVPLSVIICPDRVGVFLDYEACTVSFFNITNHGFLIYKFSHCSFSQPVFPYLNPRKCGVPMTLCSPSS [human TRIM5α, 330-340 = QAPGTRYTFPSFV]”: the enrichment was 0.191 ± 0.084. For “MASGILVNVKEEVTCPICLELLTQPLSLDCGHSFCQACLTANHKKSMLDKGESSCPVCRISYQPENIRPNRHVANIVEKLREVKLSPEGQKVDHCARHGEKLLLFCQEDGKVICWLCERSQEHRGHHTFLTEEVAREYQVKLQAALEMLRQKQQEAEELEADIREEKASWKTQIQYDKTNVLADFEQLRDILDWEESNELQNLEKEEEDILKSLTNSETEMVQQTQSLRELISDLEHRLQGSVMELLQGVDGVIKRTENVTLKKPETFPKNQRRVFRAPDLKGMLEVFRELTDVRRYWVDVTVAPNNISCAVISEDKRQVSSPKPQIIYQAPGTRYTFPSLTNFNYCTGILGSQSITSGKHYWEVDVSKKTAWILGVCAGFQPDAMCNIEKNENYQPKYGYWVIGLEEGVKCSAFQDSSFHTPSVPFIVPLSVIICPDRVGVFLDYEACTVSFFNITNHGFLIYKFSHCSFSQPVFPYLNPRKCGVPMTLCSPSS [human TRIM5α, 330-340 = QAPGTRYTFPSLT]” the value was 0.254 ± 0.14; for “MASGILVNVKEEVTCPICLELLTQPLSLDCGHSFCQACLTANHKKSMLDKGESSCPVCRISYQPENIRPNRHVANIVEKLREVKLSPEGQKVDHCARHGEKLLLFCQEDGKVICWLCERSQEHRGHHTFLTEEVAREYQVKLQAALEMLRQKQQEAEELEADIREEKASWKTQIQYDKTNVLADFEQLRDILDWEESNELQNLEKEEEDILKSLTNSETEMVQQTQSLRELISDLEHRLQGSVMELLQGVDGVIKRTENVTLKKPETFPKNQRRVFRAPDLKGMLEVFRELTDVRRYWVDVTVAPNNISCAVISEDKRQVSSPKPQIIYQAPGTRYTFPSLVNFNYCTGILGSQSITSGKHYWEVDVSKKTAWILGVCAGFQPDAMCNIEKNENYQPKYGYWVIGLEEGVKCSAFQDSSFHTPSVPFIVPLSVIICPDRVGVFLDYEACTVSFFNITNHGFLIYKFSHCSFSQPVFPYLNPRKCGVPMTLCSPSS [human TRIM5α, 330-340 = QAPGTRYTFPSLV]”, 0.161 ± 0.035. For the sequence “MASGILVNVKEEVTCPICLELLTQPLSLDCGHSFCQACLTANHKKSMLDKGESSCPVCRISYQPENIRPNRHVANIVEKLREVKLSPEGQKVDHCARHGEKLLLFCQEDGKVICWLCERSQEHRGHHTFLTEEVAREYQVKLQAALEMLRQKQQEAEELEADIREEKASWKTQIQYDKTNVLADFEQLRDILDWEESNELQNLEKEEEDILKSLTNSETEMVQQTQSLRELISDLEHRLQGSVMELLQGVDGVIKRTENVTLKKPETFPKNQRRVFRAPDLKGMLEVFRELTDVRRYWVDVTVAPNNISCAVISEDKRQVSSPKPQIIYQAPGTRYTFPTFTNFNYCTGILGSQSITSGKHYWEVDVSKKTAWILGVCAGFQPDAMCNIEKNENYQPKYGYWVIGLEEGVKCSAFQDSSFHTPSVPFIVPLSVIICPDRVGVFLDYEACTVSFFNITNHGFLIYKFSHCSFSQPVFPYLNPRKCGVPMTLCSPSS [human TRIM5α, 330-340 = QAPGTRYTFPTFT]”, the enrichment stood at 0.0455 ± 0.061. Next, “MASGILVNVKEEVTCPICLELLTQPLSLDCGHSFCQACLTANHKKSMLDKGESSCPVCRISYQPENIRPNRHVANIVEKLREVKLSPEGQKVDHCARHGEKLLLFCQEDGKVICWLCERSQEHRGHHTFLTEEVAREYQVKLQAALEMLRQKQQEAEELEADIREEKASWKTQIQYDKTNVLADFEQLRDILDWEESNELQNLEKEEEDILKSLTNSETEMVQQTQSLRELISDLEHRLQGSVMELLQGVDGVIKRTENVTLKKPETFPKNQRRVFRAPDLKGMLEVFRELTDVRRYWVDVTVAPNNISCAVISEDKRQVSSPKPQIIYQAPGTRYTFPTFVNFNYCTGILGSQSITSGKHYWEVDVSKKTAWILGVCAGFQPDAMCNIEKNENYQPKYGYWVIGLEEGVKCSAFQDSSFHTPSVPFIVPLSVIICPDRVGVFLDYEACTVSFFNITNHGFLIYKFSHCSFSQPVFPYLNPRKCGVPMTLCSPSS [human TRIM5α, 330-340 = QAPGTRYTFPTFV]”: 0.0596 ± 0.083. In the case of “MASGILVNVKEEVTCPICLELLTQPLSLDCGHSFCQACLTANHKKSMLDKGESSCPVCRISYQPENIRPNRHVANIVEKLREVKLSPEGQKVDHCARHGEKLLLFCQEDGKVICWLCERSQEHRGHHTFLTEEVAREYQVKLQAALEMLRQKQQEAEELEADIREEKASWKTQIQYDKTNVLADFEQLRDILDWEESNELQNLEKEEEDILKSLTNSETEMVQQTQSLRELISDLEHRLQGSVMELLQGVDGVIKRTENVTLKKPETFPKNQRRVFRAPDLKGMLEVFRELTDVRRYWVDVTVAPNNISCAVISEDKRQVSSPKPQIIYQAPGTRYTFPTLTNFNYCTGILGSQSITSGKHYWEVDVSKKTAWILGVCAGFQPDAMCNIEKNENYQPKYGYWVIGLEEGVKCSAFQDSSFHTPSVPFIVPLSVIICPDRVGVFLDYEACTVSFFNITNHGFLIYKFSHCSFSQPVFPYLNPRKCGVPMTLCSPSS [human TRIM5α, 330-340 = QAPGTRYTFPTLT]”, the enrichment worked out at 0.424 ± 0.14.

As to “MASGILVNVKEEVTCPICLELLTQPLSLDCGHSFCQACLTANHKKSMLDKGESSCPVCRISYQPENIRPNRHVANIVEKLREVKLSPEGQKVDHCARHGEKLLLFCQEDGKVICWLCERSQEHRGHHTFLTEEVAREYQVKLQAALEMLRQKQQEAEELEADIREEKASWKTQIQYDKTNVLADFEQLRDILDWEESNELQNLEKEEEDILKSLTNSETEMVQQTQSLRELISDLEHRLQGSVMELLQGVDGVIKRTENVTLKKPETFPKNQRRVFRAPDLKGMLEVFRELTDVRRYWVDVTVAPNNISCAVISEDKRQVSSPKPQIIYQAPGTRYTFPTLVNFNYCTGILGSQSITSGKHYWEVDVSKKTAWILGVCAGFQPDAMCNIEKNENYQPKYGYWVIGLEEGVKCSAFQDSSFHTPSVPFIVPLSVIICPDRVGVFLDYEACTVSFFNITNHGFLIYKFSHCSFSQPVFPYLNPRKCGVPMTLCSPSS [human TRIM5α, 330-340 = QAPGTRYTFPTLV]”, the enrichment was found to be 0.447 ± 0.14. Next, “MASGILVNVKEEVTCPICLELLTQPLSLDCGHSFCQACLTANHKKSMLDKGESSCPVCRISYQPENIRPNRHVANIVEKLREVKLSPEGQKVDHCARHGEKLLLFCQEDGKVICWLCERSQEHRGHHTFLTEEVAREYQVKLQAALEMLRQKQQEAEELEADIREEKASWKTQIQYDKTNVLADFEQLRDILDWEESNELQNLEKEEEDILKSLTNSETEMVQQTQSLRELISDLEHRLQGSVMELLQGVDGVIKRTENVTLKKPETFPKNQRRVFRAPDLKGMLEVFRELTDVRRYWVDVTVAPNNISCAVISEDKRQVSSPKPQIIYQAPGTRYTFQSFTNFNYCTGILGSQSITSGKHYWEVDVSKKTAWILGVCAGFQPDAMCNIEKNENYQPKYGYWVIGLEEGVKCSAFQDSSFHTPSVPFIVPLSVIICPDRVGVFLDYEACTVSFFNITNHGFLIYKFSHCSFSQPVFPYLNPRKCGVPMTLCSPSS [human TRIM5α, 330-340 = QAPGTRYTFQSFT]”: 0.135 ± 0.031. As for “MASGILVNVKEEVTCPICLELLTQPLSLDCGHSFCQACLTANHKKSMLDKGESSCPVCRISYQPENIRPNRHVANIVEKLREVKLSPEGQKVDHCARHGEKLLLFCQEDGKVICWLCERSQEHRGHHTFLTEEVAREYQVKLQAALEMLRQKQQEAEELEADIREEKASWKTQIQYDKTNVLADFEQLRDILDWEESNELQNLEKEEEDILKSLTNSETEMVQQTQSLRELISDLEHRLQGSVMELLQGVDGVIKRTENVTLKKPETFPKNQRRVFRAPDLKGMLEVFRELTDVRRYWVDVTVAPNNISCAVISEDKRQVSSPKPQIIYQAPGTRYTFQSFVNFNYCTGILGSQSITSGKHYWEVDVSKKTAWILGVCAGFQPDAMCNIEKNENYQPKYGYWVIGLEEGVKCSAFQDSSFHTPSVPFIVPLSVIICPDRVGVFLDYEACTVSFFNITNHGFLIYKFSHCSFSQPVFPYLNPRKCGVPMTLCSPSS [human TRIM5α, 330-340 = QAPGTRYTFQSFV]”, the enrichment was determined as 0.124 ± 0.033. Next, “MASGILVNVKEEVTCPICLELLTQPLSLDCGHSFCQACLTANHKKSMLDKGESSCPVCRISYQPENIRPNRHVANIVEKLREVKLSPEGQKVDHCARHGEKLLLFCQEDGKVICWLCERSQEHRGHHTFLTEEVAREYQVKLQAALEMLRQKQQEAEELEADIREEKASWKTQIQYDKTNVLADFEQLRDILDWEESNELQNLEKEEEDILKSLTNSETEMVQQTQSLRELISDLEHRLQGSVMELLQGVDGVIKRTENVTLKKPETFPKNQRRVFRAPDLKGMLEVFRELTDVRRYWVDVTVAPNNISCAVISEDKRQVSSPKPQIIYQAPGTRYTFQSLTNFNYCTGILGSQSITSGKHYWEVDVSKKTAWILGVCAGFQPDAMCNIEKNENYQPKYGYWVIGLEEGVKCSAFQDSSFHTPSVPFIVPLSVIICPDRVGVFLDYEACTVSFFNITNHGFLIYKFSHCSFSQPVFPYLNPRKCGVPMTLCSPSS [human TRIM5α, 330-340 = QAPGTRYTFQSLT]”: 0.177 ± 0.04. For “MASGILVNVKEEVTCPICLELLTQPLSLDCGHSFCQACLTANHKKSMLDKGESSCPVCRISYQPENIRPNRHVANIVEKLREVKLSPEGQKVDHCARHGEKLLLFCQEDGKVICWLCERSQEHRGHHTFLTEEVAREYQVKLQAALEMLRQKQQEAEELEADIREEKASWKTQIQYDKTNVLADFEQLRDILDWEESNELQNLEKEEEDILKSLTNSETEMVQQTQSLRELISDLEHRLQGSVMELLQGVDGVIKRTENVTLKKPETFPKNQRRVFRAPDLKGMLEVFRELTDVRRYWVDVTVAPNNISCAVISEDKRQVSSPKPQIIYQAPGTRYTFQSLVNFNYCTGILGSQSITSGKHYWEVDVSKKTAWILGVCAGFQPDAMCNIEKNENYQPKYGYWVIGLEEGVKCSAFQDSSFHTPSVPFIVPLSVIICPDRVGVFLDYEACTVSFFNITNHGFLIYKFSHCSFSQPVFPYLNPRKCGVPMTLCSPSS [human TRIM5α, 330-340 = QAPGTRYTFQSLV]” the value was 0.318 ± 0.08; for “MASGILVNVKEEVTCPICLELLTQPLSLDCGHSFCQACLTANHKKSMLDKGESSCPVCRISYQPENIRPNRHVANIVEKLREVKLSPEGQKVDHCARHGEKLLLFCQEDGKVICWLCERSQEHRGHHTFLTEEVAREYQVKLQAALEMLRQKQQEAEELEADIREEKASWKTQIQYDKTNVLADFEQLRDILDWEESNELQNLEKEEEDILKSLTNSETEMVQQTQSLRELISDLEHRLQGSVMELLQGVDGVIKRTENVTLKKPETFPKNQRRVFRAPDLKGMLEVFRELTDVRRYWVDVTVAPNNISCAVISEDKRQVSSPKPQIIYQAPGTRYTFQTFTNFNYCTGILGSQSITSGKHYWEVDVSKKTAWILGVCAGFQPDAMCNIEKNENYQPKYGYWVIGLEEGVKCSAFQDSSFHTPSVPFIVPLSVIICPDRVGVFLDYEACTVSFFNITNHGFLIYKFSHCSFSQPVFPYLNPRKCGVPMTLCSPSS [human TRIM5α, 330-340 = QAPGTRYTFQTFT]”, 0.141 ± 0.069.
